# This is one part of the list.
# Legend:
# Experiment in all cases: glycan array binding signal (z-score within array); higher = stronger binding
# Settings in all cases: glycan notation: IUPAC condensed, linker removed
# [1] = target: Neu5Ac(a2-3)Gal(b1-4)GlcNAc6S
# Method in brief: (§1)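 From the Consortium for Functional Glycomics database, 3228 arrays were curated, keeping only those whose protein sequence was available. Binding is given as a within-array Z-score averaged across arrays sharing a protein sequence and across linkers. Negative Z-scores can be read as non-binding.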
# [2] = target: Neu5Ac(a2-3)Gal(b1-4)[Fuc(a1-3)]GlcNAc
# Method in brief: as §1
# [3] = target: Neu5Ac(a2-3)Gal(b1-4)[Fuc(a1-3)]GlcNAc(b1-3)Gal
# Method in brief: as §1
# [4] = target: Neu5Ac(a2-3)Gal(b1-4)[Fuc(a1-3)]GlcNAc(b1-3)Gal(b1-4)GlcNAc
# Method in brief: as §1
# [5] = target: Neu5Ac(a2-3)Gal(b1-4)[Fuc(a1-3)]GlcNAc(b1-3)Gal(b1-4)[Fuc(a1-3)]GlcNAc(b1-3)Gal(b1-4)[Fuc(a1-3)]GlcNAc
# Method in brief: as §1
# [6] = target: Neu5Ac(a2-3)Gal(b1-4)[Fuc(a1-3)]GlcNAc6S
# Method in brief: as §1
# [7] = target: Neu5Ac(a2-3)Gal6S(b1-4)GlcNAc
# Method in brief: as §1
# [8] = target: Neu5Ac(a2-3)Gal6S(b1-4)[Fuc(a1-3)]GlcNAc
# Method in brief: as §1
# Neu5Ac(a2-3)GalNAc = target: Neu5Ac(a2-3)GalNAc
# Method in brief: as §1
# [9] = target: Neu5Ac(a2-3)GalNAc(b1-4)GlcNAc
# Method in brief: as §1
# [10] = target: Neu5Ac(a2-3)[GalNAc(b1-4)]Gal(b1-4)Glc
# Method in brief: as §1
# [11] = target: Neu5Ac(a2-3)[GalNAc(b1-4)]Gal(b1-4)GlcNAc
# Method in brief: as §1
# [12] = target: Neu5Ac(a2-3)[Neu5Ac(a2-6)]GalNAc
# Method in brief: as §1
# Neu5Ac(a2-6)Gal = target: Neu5Ac(a2-6)Gal
# Method in brief: as §1
# Neu5Ac(a2-6)Gal(b1-4)Glc = target: Neu5Ac(a2-6)Gal(b1-4)Glc
# Method in brief: as §1
# [13] = target: Neu5Ac(a2-6)Gal(b1-4)GlcNAc
# Method in brief: as §1
# [14] = target: Neu5Ac(a2-6)Gal(b1-4)GlcNAc(b1-3)Gal(b1-4)GlcNAc
# Method in brief: as §1
# [15] = target: Neu5Ac(a2-6)Gal(b1-4)GlcNAc(b1-3)Gal(b1-4)[Fuc(a1-3)]GlcNAc(b1-3)Gal(b1-4)[Fuc(a1-3)]GlcNAc
# Method in brief: as §1
# [16] = target: Neu5Ac(a2-6)Gal(b1-4)GlcNAc6S
# Method in brief: as §1
# Neu5Ac(a2-6)GalNAc = target: Neu5Ac(a2-6)GalNAc
# Method in brief: as §1
# [17] = target: Neu5Ac(a2-6)GalNAc(b1-4)GlcNAc
# Method in brief: as §1
# Neu5Ac(a2-8)Neu5Ac = target: Neu5Ac(a2-8)Neu5Ac
# Method in brief: as §1
# [18] = target: Neu5Ac(a2-8)Neu5Ac(a2-3)Gal(b1-4)Glc
# Method in brief: as §1
# [19] = target: Neu5Ac(a2-8)Neu5Ac(a2-3)[GalNAc(b1-4)]Gal(b1-4)Glc
# Method in brief: as §1
# [20] = target: Neu5Ac(a2-8)Neu5Ac(a2-8)Neu5Ac
# Method in brief: as §1
# [21] = target: Neu5Ac(a2-8)Neu5Ac(a2-8)Neu5Ac(a2-3)Gal(b1-4)Glc
# Method in brief: as §1
# [22] = target: Neu5Ac(a2-8)Neu5Ac(a2-8)Neu5Ac(a2-3)[GalNAc(b1-4)]Gal(b1-4)Glc
# Method in brief: as §1
# [23] = target: Neu5Ac(a2-8)Neu5Ac(a2-8)Neu5Ac(a2-8)Neu5Ac(a2-3)[GalNAc(b1-4)]Gal(b1-4)Glc
# Method in brief: as §1
# Neu5Ac(b1-6)GalNAc = target: Neu5Ac(b1-6)GalNAc
# Method in brief: as §1
# [24] = target: Neu5Ac(b2-6)Gal(b1-4)GlcNAc
# Method in brief: as §1
# [25] = target: Neu5Ac9Ac(a2-6)Gal(b1-4)GlcNAc
# Method in brief: as §1
# [26] = target: Neu5Gc(a2-3)Gal(b1-3)GlcNAc
# Method in brief: as §1
# [27] = target: Neu5Gc(a2-3)Gal(b1-3)[Fuc(a1-4)]GlcNAc
# Method in brief: as §1
# Neu5Gc(a2-3)Gal(b1-4)Glc = target: Neu5Gc(a2-3)Gal(b1-4)Glc
# Method in brief: as §1
# [28] = target: Neu5Gc(a2-3)Gal(b1-4)GlcNAc
# Method in brief: as §1
# [29] = target: Neu5Gc(a2-3)Gal(b1-4)[Fuc(a1-3)]GlcNAc
# Method in brief: as §1
# [30] = target: Neu5Gc(a2-6)Gal(b1-4)GlcNAc
# Method in brief: as §1
# Neu5Gc(a2-6)GalNAc = target: Neu5Gc(a2-6)GalNAc
# Method in brief: as §1
binder,measurement,setting,value
"Siglec-H (Mus musculus), Q4QQK7 (protein) MLLSRLLPLLWVLKWASGNCFILPREVIGTYPSLTLELQSVTVQEGLCVLVPCHLIEYPMNRWSDAAFGYWFHEGENTHPDSLVATNKPYQLVQKEMQSRFHFSGDCSLDIRDAQKGDNGSYFFRLEKGGKTWNFCEERISVHVTDLTHSPNISIPQTLELGRPTNVMCSVPWACERGTPPIFSWMSAALISLGPTTTLSSVLTLTPRLQDHGTNLTCQVTFPGAGVTVQKTIQLNVTYNSQNSTAHVSGRVGPGKPRPLADVVQVAMGEAAIKFLLLGICFFFLSKRSHTKRVERPATHMDQAHAVMD",glycan array binding signal (z-score),[1],-0.092
same,glycan array binding signal (z-score),[2],-0.197
same,glycan array binding signal (z-score),[3],-0.235
same,glycan array binding signal (z-score),[4],-0.264
same,glycan array binding signal (z-score),[5],-0.272
same,glycan array binding signal (z-score),[6],-0.306
same,glycan array binding signal (z-score),[7],-0.332
same,glycan array binding signal (z-score),[8],-0.309
same,glycan array binding signal (z-score),Neu5Ac(a2-3)GalNAc,1.76
same,glycan array binding signal (z-score),[9],-0.076
same,glycan array binding signal (z-score),[10],-0.261
same,glycan array binding signal (z-score),[11],-0.192
same,glycan array binding signal (z-score),[12],-0.259
same,glycan array binding signal (z-score),Neu5Ac(a2-6)Gal,-0.372
same,glycan array binding signal (z-score),Neu5Ac(a2-6)Gal(b1-4)Glc,-0.319
same,glycan array binding signal (z-score),[13],-0.199
same,glycan array binding signal (z-score),[14],1.02
same,glycan array binding signal (z-score),[15],-0.217
same,glycan array binding signal (z-score),[16],-0.291
same,glycan array binding signal (z-score),Neu5Ac(a2-6)GalNAc,-0.358
same,glycan array binding signal (z-score),[17],-0.382
same,glycan array binding signal (z-score),Neu5Ac(a2-8)Neu5Ac,-0.241
same,glycan array binding signal (z-score),[18],-0.342
same,glycan array binding signal (z-score),[19],-0.318
same,glycan array binding signal (z-score),[20],-0.254
same,glycan array binding signal (z-score),[21],-0.277
same,glycan array binding signal (z-score),[22],-0.358
same,glycan array binding signal (z-score),[23],1.43
same,glycan array binding signal (z-score),Neu5Ac(b1-6)GalNAc,0.697
same,glycan array binding signal (z-score),[24],-0.378
same,glycan array binding signal (z-score),[25],1.42
same,glycan array binding signal (z-score),[26],-0.389
same,glycan array binding signal (z-score),[27],0.026
same,glycan array binding signal (z-score),Neu5Gc(a2-3)Gal(b1-4)Glc,-0.282
same,glycan array binding signal (z-score),[28],-0.295
same,glycan array binding signal (z-score),[29],-0.29
same,glycan array binding signal (z-score),[30],1.11
same,glycan array binding signal (z-score),Neu5Gc(a2-6)GalNAc,0.696

# Source: the supplement of paper PMC8728848
